{"source": "paper PMC4336329", "about": "(PLoS ONE, 2015)", "note": "Screen size: about 310,000 compounds; about 14,000 (4.5%) showed an effect of 50% or more. The effect is printed as a negative number. Some of the results follow.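 Also: peak tail current of the secondary pulse compared with the same well before compound.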", "data": [{"target": "human ether-à-go-go-related gene (hERG) potassium channel (human, UniProt Q12809)", "sequence (Q12809 whole entry, looked up)": "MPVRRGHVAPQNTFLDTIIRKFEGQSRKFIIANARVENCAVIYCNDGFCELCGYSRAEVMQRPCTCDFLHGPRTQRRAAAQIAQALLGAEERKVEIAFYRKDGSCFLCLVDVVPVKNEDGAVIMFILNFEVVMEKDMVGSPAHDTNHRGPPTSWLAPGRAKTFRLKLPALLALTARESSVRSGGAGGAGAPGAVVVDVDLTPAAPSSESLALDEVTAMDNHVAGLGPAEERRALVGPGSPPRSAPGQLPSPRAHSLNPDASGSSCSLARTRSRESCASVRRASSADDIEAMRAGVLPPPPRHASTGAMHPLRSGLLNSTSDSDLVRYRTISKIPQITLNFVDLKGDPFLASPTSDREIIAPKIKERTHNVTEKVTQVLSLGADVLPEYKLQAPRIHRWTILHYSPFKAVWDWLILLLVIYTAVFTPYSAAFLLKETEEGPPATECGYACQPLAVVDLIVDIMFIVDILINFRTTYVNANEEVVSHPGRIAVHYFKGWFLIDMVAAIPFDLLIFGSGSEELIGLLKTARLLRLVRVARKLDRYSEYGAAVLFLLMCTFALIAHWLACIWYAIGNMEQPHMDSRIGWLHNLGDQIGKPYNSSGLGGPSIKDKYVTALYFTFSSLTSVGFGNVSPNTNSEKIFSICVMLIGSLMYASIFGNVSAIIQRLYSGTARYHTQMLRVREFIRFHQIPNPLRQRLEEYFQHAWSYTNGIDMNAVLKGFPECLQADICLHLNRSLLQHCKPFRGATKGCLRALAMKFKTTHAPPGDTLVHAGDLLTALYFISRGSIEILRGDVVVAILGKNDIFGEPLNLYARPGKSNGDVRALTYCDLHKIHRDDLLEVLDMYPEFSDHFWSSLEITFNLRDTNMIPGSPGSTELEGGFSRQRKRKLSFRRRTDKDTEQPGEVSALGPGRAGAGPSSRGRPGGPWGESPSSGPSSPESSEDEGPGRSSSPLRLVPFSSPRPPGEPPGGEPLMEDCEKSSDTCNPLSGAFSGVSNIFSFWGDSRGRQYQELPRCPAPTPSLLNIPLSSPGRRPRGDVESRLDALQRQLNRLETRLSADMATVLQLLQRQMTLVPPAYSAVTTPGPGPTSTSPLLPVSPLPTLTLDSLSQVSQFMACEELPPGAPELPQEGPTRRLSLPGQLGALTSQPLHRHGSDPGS", "experiment": "primary screen, population patch clamp on CHO cells stably expressing hERG", "units": {"hERG current change (%, negative = inhibition) at 10uM": "%"}, "values": [{"smiles": "Cc1ccc(NC(=O)c2cc(S(=O)(=O)N3CCOCC3)c(Br)s2)cc1", "hERG current change (%, negative = inhibition) at 10uM": 18}, {"smiles": "CC(C)(C#N)NC(=O)C(=O)c1c(-c2ccccc2)cc2ccccn12", "hERG current change (%, negative = inhibition) at 10uM": 0.544}, {"smiles": "CC(=O)N1CCN(CC(O)COc2ccc(Br)cc2)CC1.O=C(O)C(=O)O", "note": "(stereo not shown)", "hERG current change (%, negative = inhibition) at 10uM": -10.7}, {"smiles": "O=C(c1cc(-c2ccccn2)nc2ccccc12)N1CCN(c2ncccn2)CC1", "hERG current change (%, negative = inhibition) at 10uM": -6.84}, {"smiles": "O=C(O)c1ccccc1N1C(=O)c2cccc3cccc(c23)C1=O", "hERG current change (%, negative = inhibition) at 10uM": -1.39}, {"smiles": "CCCCOc1cc(C)nc(NCc2ccccc2)n1", "hERG current change (%, negative = inhibition) at 10uM": 5.5}, {"smiles": "CCOc1ccc(NC(=S)N(CCN2CCOCC2)Cc2ccc3c(c2)CCCN3CC)cc1", "hERG current change (%, negative = inhibition) at 10uM": -7.8}, {"smiles": "CCC(CC)COC(=O)C1=C(C)NC(=O)NC1c1ccccc1Br", "note": "(stereo not shown)", "hERG current change (%, negative = inhibition) at 10uM": 20.7}, {"smiles": "Cc1nc2nc(Cc3ccccc3)[nH]n2c(=O)c1Cl", "hERG current change (%, negative = inhibition) at 10uM": 11.8}, {"smiles": "O=C(Cn1c(=O)c2c(ncn2Cc2ccccc2)n(Cc2ccccc2)c1=O)N1CCc2ccccc21", "hERG current change (%, negative = inhibition) at 10uM": -0.223}, {"smiles": "CC1CN(C(=O)c2cc(F)c(F)cc2Cl)CC(C)O1", "note": "(stereo not shown)", "hERG current change (%, negative = inhibition) at 10uM": 6.44}, {"smiles": "CC(C)CNC(=O)COC(=O)c1ccccc1OCC(=O)Nc1ccc(Br)cc1", "hERG current change (%, negative = inhibition) at 10uM": 7.3}, {"smiles": "CC(C(=O)Nc1ccc2c(c1)OCO2)n1cnc2c1c(=O)n(C)c(=O)n2C", "note": "(stereo not shown)", "hERG current change (%, negative = inhibition) at 10uM": -1.4}, {"smiles": "COc1cccc(C(=O)Nc2c3c(nn2-c2ccccc2C)CS(=O)C3)c1OC", "note": "(stereo not shown)", "hERG current change (%, negative = inhibition) at 10uM": 2.14}, {"smiles": "CCCOc1ccc(C(C(=O)OCCN(CC)CC)c2ccccc2)cc1.O=C(O)C(=O)O", "note": "(stereo not shown)", "hERG current change (%, negative = inhibition) at 10uM": -43}, {"smiles": "CCN1CCN(C(=O)/C=C\\C(=O)O)CC1", "hERG current change (%, negative = inhibition) at 10uM": 11.3}, {"smiles": "C[C@H](NC(=O)c1nc[nH]c1C(=O)NCc1ccccc1)C(=O)OCc1ccccc1", "hERG current change (%, negative = inhibition) at 10uM": 3.6}, {"smiles": "COc1ccc(C(C)(C)C)cc1NC(=O)c1ccc2c(c1)SC1=NS(=O)(=O)CCN12", "hERG current change (%, negative = inhibition) at 10uM": 14.3}, {"smiles": "CCN(CC)CC.CCc1ccc(-n2c(=S)sc3c(=O)n(-c4ccccc4OC)c(=S)[nH]c32)cc1", "hERG current change (%, negative = inhibition) at 10uM": 9.57}, {"smiles": "Cc1cc(NS(=O)(=O)c2cn(C)nc2C)no1", "hERG current change (%, negative = inhibition) at 10uM": 23.6}, {"smiles": "O=C(O)CCCNc1ccc(S(=O)(=O)Nc2ccccc2C(=O)O)cc1C(=O)O", "hERG current change (%, negative = inhibition) at 10uM": 4.01}, {"smiles": "O=c1[nH]c(=O)n(CC2CCCO2)c(O)c1/C=C1\\C=Nc2ccccc21", "note": "(stereo not shown) [26662360]", "hERG current change (%, negative = inhibition) at 10uM": -1.51}, {"smiles": "COc1cc(C(C(=O)NC2CCCCC2)N(CCN2CCOCC2)C(=O)C2COc3ccccc3O2)cc(OC)c1OC", "note": "(stereo not shown)", "hERG current change (%, negative = inhibition) at 10uM": 37.9}, {"smiles": "Cn1c(N/N=C/c2ccccc2)nc2sc3c(c2c1=O)CCC3", "hERG current change (%, negative = inhibition) at 10uM": 2.04}, {"smiles": "O=c1c(-c2nnc(SCc3ccc(Cl)c(Cl)c3)o2)cccn1Cc1ccccc1", "hERG current change (%, negative = inhibition) at 10uM": 1.6}, {"smiles": "O=c1cc([O-])nc(SCc2ccccc2)n1-c1ccccc1.[K+]", "hERG current change (%, negative = inhibition) at 10uM": 11.4}, {"smiles": "CC(=O)Nc1ccc(S(=O)(=O)N2CCC(Oc3ccc(-n4cnnn4)cc3)CC2)cc1", "hERG current change (%, negative = inhibition) at 10uM": -19.4}, {"smiles": "Cc1ccc(OCCC(=O)Nc2ccc3c(c2)OCO3)cc1", "hERG current change (%, negative = inhibition) at 10uM": 0.269}, {"smiles": "CCCSc1nc(C)cc(C)c1S(=O)(=O)c1ccccc1C", "hERG current change (%, negative = inhibition) at 10uM": 13.6}, {"smiles": "Nc1ccc2c(c1)C(=O)N(CC1CCCO1)C2=O", "note": "(stereo not shown)", "hERG current change (%, negative = inhibition) at 10uM": -0.477}, {"smiles": "COc1ccc(C)cc1NC(=O)CN1C(=O)C(=O)N(C2CCCC2)C1=O", "hERG current change (%, negative = inhibition) at 10uM": 9.44}, {"smiles": "COc1ccccc1NC1=C(C)C(=O)CC1", "hERG current change (%, negative = inhibition) at 10uM": 15.9}, {"smiles": "CCN(CC)S(=O)(=O)c1ccc(O)c(C(=O)OCC(=O)Nc2cc(C)c(C)cc2[N+](=O)[O-])c1", "hERG current change (%, negative = inhibition) at 10uM": -4.8}, {"smiles": "CC(C)C[C@@H](C(=O)N[C@@H](C(=O)O)c1ccccc1)N1C(=O)N2CCc3c([nH]c4ccccc34)[C@@]2(C)C1=O", "hERG current change (%, negative = inhibition) at 10uM": -6.67}, {"smiles": "COC(=O)c1ccc(Oc2nc(NC(C)C)nc(SC)n2)cc1", "hERG current change (%, negative = inhibition) at 10uM": 0.243}, {"smiles": "O=C(O)c1nn(-c2ccc(Cl)cc2)ccc1=O", "hERG current change (%, negative = inhibition) at 10uM": 4.43}, {"smiles": "CCOC(=O)C[C@H]1c2cc(F)ccc2S(=O)(=O)N1C1CCCCC1", "hERG current change (%, negative = inhibition) at 10uM": -3.26}, {"smiles": "Cn1c(CNC(=O)c2ccccc2F)nnc1SCC(=O)Nc1nnc(C2CC2)s1", "hERG current change (%, negative = inhibition) at 10uM": 6.25}, {"smiles": "CCN1CCN(CCNC(=O)CCc2c(C)c3c(C)nn(-c4ccccc4)c3n(C)c2=O)CC1", "hERG current change (%, negative = inhibition) at 10uM": -31.2}, {"smiles": "CCCCCCOc1ccc(N2C(=O)CC(N3CCC(C(=O)OCC)CC3)C2=O)cc1", "note": "(stereo not shown)", "hERG current change (%, negative = inhibition) at 10uM": 6.75}, {"smiles": "Cc1ccc(NC(=O)c2ccc(NS(=O)(=O)c3cccc4cccnc34)cc2)cc1", "hERG current change (%, negative = inhibition) at 10uM": 0.33}, {"smiles": "COc1ccccc1C(=O)N1CCN(c2ccc(N3CCOCC3)nn2)CC1", "hERG current change (%, negative = inhibition) at 10uM": 7.02}, {"smiles": "CCC(CC)NC(=O)COC(=O)c1cccc(C)c1O", "hERG current change (%, negative = inhibition) at 10uM": 2.27}]}]}
